Reference: PubChem BioAssay AID904 (National Center for Advancing Translational Sciences (NCATS), 2007)
Screen size: about 55,000 compounds; about 530 (0.96%) were called active. Inconclusive means that the source gave no clear call. Such entries were picked first, then a sample of the others. Calls follow the shape of the dose curve; as a rule, active = well fitted cell-killing curve with a large enough effect; inconclusive = small, poorly fitted or top-dose-only effect; inactive = no such curve, though single readings can be large or run the other way. A potency beside an inconclusive call is a rough fit, not a confirmed value.

Assay: qHTS Screen for Compounds that Selectively Target Cancer Cells with p53 Mutations: Cytotoxicity of p53 Null Cells at the Nonpermissive Temperature; also: nearly all actives have a fitted effect of over 50% in size;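 as to activity, negative = cell killing: 0% = DMSO only and -100% = full killing by 100 µM tamoxifen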
Conditions: H1299 p53-null (neo) cells, 39C, ATPlite viability, 24 h; activity, negative = cell killing: at 46.1 µM (top of the series)
In short: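 ATP-luminescence viability readout (ATPlite, 20 min RT) after 24 hr compound treatment at 39C of H1299-neo or H1299-p53A138V cells; titration up to 46 uM; normalized to DMSO and 100 uM tamoxifen; Hill-fit AC50.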
Potency is read from the fitted curve at half-maximal effect; tags tell the direction and shape of the fitted curve.

Row | Structure (SMILES) | Potency | activity, negative = cell killing
1 | Cc1ccc(CNC(=O)CN2C(=O)CSc3ccc(S(=O)(=O)N4CCCC4)cc32)cc1 | active: 12.6 µM | –
2 | O=C(Nc1ccc2nc(SCC(=O)N3CCCC3)sc2c1)c1cccc(F)c1 | inconclusive: 25.1 µM [cytotoxic, single point] | –
3 | O=C(CN(c1cccc(C(F)(F)F)c1)S(=O)(=O)c1ccccc1)Nc1cccc(Cl)c1 | inconclusive: 15.8 µM [cytotoxic, single point] | –
4 | COc1ccccc1CNC(=O)C(=O)NCC(c1cccnc1)N1CCN(c2ccc(F)cc2)CC1 (stereo not given) | inconclusive: 35.5 µM [cytotoxic, single point] | –
5 | Cc1cc(C)cc(OCC(=O)N2N=C(C(F)(F)F)CC2(O)C(C)(C)C)c1 (stereo not given) | inconclusive: 11.2 µM [cytotoxic, partial curve, poor fit] | –
6 | COCC(C)Nc1ncnc2c1cnn2-c1cccc(Cl)c1 (stereo not given) | inconclusive: 35.5 µM [cytotoxic, single point] | –
7 | O=S(=O)(Nc1cccc(-c2ccc(N3CCCCC3)nn2)c1)c1ccc(F)cc1F | inconclusive: 12.6 µM [cytotoxic, partial curve] | –
8 | CCC(C(=O)NCCc1ccc(SC)cc1)n1nc(C)c2c(C)n(-c3ccc(C)cc3)nc2c1=O (stereo not given) | – | inactive: -6.56%
9 | Fc1ccc(Cc2cn3cc(-c4ccc(F)cc4)nc3s2)cc1 | inconclusive: 3.98 µM [cytotoxic, partial curve] | –
10 | COc1cccc(N=C2SC(C(=O)Nc3cccc(Cl)c3)CC(=O)N2C)c1 (stereo not given) | inconclusive: 31.6 µM [cytotoxic, single point] | –
11 | Cc1ccccc1C(=O)N1CCCCC1CCN1CCCCC1 (stereo not given) | inconclusive: 0.0501 µM [cytotoxic, full curve] | –
12 | CC(=O)N1CCc2c(sc3c2c(=O)n(-c2ccccc2)c(=O)n3Cc2cccc(C(F)(F)F)c2)C1 | inconclusive: 31.6 µM [cytotoxic, single point] | –
13 | COc1ccc(-c2cc(C(=O)NCCc3ccccc3)c3c(-c4ccccc4)[nH]nc3n2)cc1 | inconclusive: 25.1 µM [cytotoxic, single point] | –
14 | O=C(NCC(c1cccnc1)N1CCc2ccccc2C1)C(=O)Nc1cccc(Cl)c1 (stereo not given) | inconclusive: 0.01 µM [cytotoxic, full curve, poor fit] | –
15 | CCOc1cc(CNCCSc2nnnn2C)cc(Cl)c1OCc1ccc(Cl)cc1 | active: 11.2 µM | –
16 | Cc1ccc2ccc3cc(C(=O)Nc4ccc(C)c(F)c4)nc3c2[nH]1 | inconclusive: 22.4 µM [cytotoxic, partial curve, poor fit] | –
17 | Cc1cccc(NC(=O)CSc2nc(C)c(Cc3ccccc3)c(=O)[nH]2)c1C | inconclusive: 0.0032 µM [cytotoxic, full curve, poor fit] | –
18 | Cc1cc(NC(=O)c2ccco2)cc(-c2nc3cc(Cl)ccc3o2)c1O | inconclusive: 20 µM [cytotoxic, partial curve] | –
19 | CCCCN(CC)C(=O)C1CCC(CNS(=O)(=O)c2cccc3nsnc23)CC1 (stereo not given) | – | inactive: -14.5%
20 | O=S(=O)(c1ccc(Cl)cc1)c1nnn2c1nc(NCc1ccccc1)c1sccc12 | inconclusive: 0.0251 µM [cytotoxic, full curve, poor fit] | –

Row | Structure (SMILES) | Potency | activity, negative = cell killing
21 | Cc1ccc(-n2c(=O)[nH]c3sc4c(c3c2=O)CCCC4)cc1 | inconclusive: 2 µM [cytotoxic, full curve, poor fit] | –
22 | CC(=O)N(Cc1cccnc1)c1nc2cc(C)cc(C)c2s1 | inconclusive: 0.794 µM [cytotoxic, full curve, poor fit] | –
23 | Oc1ccc(CN2CCN(c3ccccc3)CC2)c2cccnc12 | – | inactive: -9.86%
24 | COc1cccc(/C=N/Nc2nnc(C)n2N)c1OCc1ccccc1Cl | active: 17.8 µM | –
25 | Cc1cc(C)cc(NC(=O)CN(c2cccc(C)c2C)S(=O)(=O)c2ccccc2)c1 | inconclusive: 6.31 µM [cytotoxic, single point] | –
26 | Cc1c(NC(=O)c2ccc(-c3ccc(F)cc3)o2)cccc1-c1nc2ncccc2o1 | inconclusive: 12.6 µM [cytotoxic, partial curve, poor fit] | –
27 | Cc1nn(CC(=O)NCCc2ccc(Cl)cc2Cl)c(C)c1[N+](=O)[O-] | inconclusive: 0.0032 µM [cytotoxic, full curve, poor fit] | –
28 | CSc1nc(C)cc(Nc2cccc(C(=O)O)c2)n1 | inconclusive: 3.55 µM [cytotoxic, single point] | –
29 | CC(CNC(=O)c1cc2ccccn2n1)c1ccccc1 (stereo not given) | inconclusive: 7.94 µM [cytotoxic, partial curve] | –
30 | Cc1ccc2nc(N(Cc3cccnc3)C(=O)CCc3ccccc3)sc2c1 | inconclusive: 5.62 µM [cytotoxic, single point] | –
31 | O=C(O)CCSc1nnc(-c2ccc(Cl)cc2Cl)o1 | inconclusive: 12.6 µM [cytotoxic, partial curve] | –
32 | O=S1(=O)N=C(Nc2nc3c(s2)CCCC3)c2ccccc21 | active: 5.62 µM | –
33 | COc1cccc(-c2cn3c(n2)sc2cc(C(=O)NCCc4ccccc4)ccc23)c1 | inconclusive: 7.94 µM [cytotoxic, partial curve] | –
34 | Cc1ccc(C)c(N2CCN(CCCNC(=O)c3ccc4nc(C(C)C)oc4c3)CC2)c1 | – | inactive: -13.3%
35 | CC1=C(C(=O)OC2CCCCCC2)C(c2c(Cl)cccc2Cl)CC(=O)N1 (stereo not given) | inconclusive: 14.1 µM [cytotoxic, partial curve] | –
36 | COc1ccc(CCNC(=O)c2cc(-c3ccc(C)c(C)c3)nc3ccccc23)cc1OC | inconclusive: 0.0089 µM [cytotoxic, full curve] | –
37 | CCOc1ccc(CCNC(c2nnc(-c3ccccc3)o2)c2ccccc2Cl)cc1OCC (stereo not given) | inconclusive: 10 µM [cytotoxic, single point] | –
38 | CCCN(C(=O)Cn1nc(Cc2cccnc2)c2ccccc2c1=O)c1ccc(C(C)C)cc1 | inconclusive: 31.6 µM [cytotoxic, single point] | –
39 | CCCOc1ccc(CNC(=O)c2cc3oc4ccccc4c3n2C)cc1 | inconclusive: 6.31 µM [cytotoxic, full curve] | –
40 | Cc1ccc2nc(NCCc3ccc(Cl)cc3)c3nncn3c2c1 | inconclusive: 20 µM [cytotoxic, partial curve] | –
